Among the data in PMC3656144 are binding values, retold here.

The chains behind the UniProt entries cited, without tags or fusion partners.
UniProt P34574: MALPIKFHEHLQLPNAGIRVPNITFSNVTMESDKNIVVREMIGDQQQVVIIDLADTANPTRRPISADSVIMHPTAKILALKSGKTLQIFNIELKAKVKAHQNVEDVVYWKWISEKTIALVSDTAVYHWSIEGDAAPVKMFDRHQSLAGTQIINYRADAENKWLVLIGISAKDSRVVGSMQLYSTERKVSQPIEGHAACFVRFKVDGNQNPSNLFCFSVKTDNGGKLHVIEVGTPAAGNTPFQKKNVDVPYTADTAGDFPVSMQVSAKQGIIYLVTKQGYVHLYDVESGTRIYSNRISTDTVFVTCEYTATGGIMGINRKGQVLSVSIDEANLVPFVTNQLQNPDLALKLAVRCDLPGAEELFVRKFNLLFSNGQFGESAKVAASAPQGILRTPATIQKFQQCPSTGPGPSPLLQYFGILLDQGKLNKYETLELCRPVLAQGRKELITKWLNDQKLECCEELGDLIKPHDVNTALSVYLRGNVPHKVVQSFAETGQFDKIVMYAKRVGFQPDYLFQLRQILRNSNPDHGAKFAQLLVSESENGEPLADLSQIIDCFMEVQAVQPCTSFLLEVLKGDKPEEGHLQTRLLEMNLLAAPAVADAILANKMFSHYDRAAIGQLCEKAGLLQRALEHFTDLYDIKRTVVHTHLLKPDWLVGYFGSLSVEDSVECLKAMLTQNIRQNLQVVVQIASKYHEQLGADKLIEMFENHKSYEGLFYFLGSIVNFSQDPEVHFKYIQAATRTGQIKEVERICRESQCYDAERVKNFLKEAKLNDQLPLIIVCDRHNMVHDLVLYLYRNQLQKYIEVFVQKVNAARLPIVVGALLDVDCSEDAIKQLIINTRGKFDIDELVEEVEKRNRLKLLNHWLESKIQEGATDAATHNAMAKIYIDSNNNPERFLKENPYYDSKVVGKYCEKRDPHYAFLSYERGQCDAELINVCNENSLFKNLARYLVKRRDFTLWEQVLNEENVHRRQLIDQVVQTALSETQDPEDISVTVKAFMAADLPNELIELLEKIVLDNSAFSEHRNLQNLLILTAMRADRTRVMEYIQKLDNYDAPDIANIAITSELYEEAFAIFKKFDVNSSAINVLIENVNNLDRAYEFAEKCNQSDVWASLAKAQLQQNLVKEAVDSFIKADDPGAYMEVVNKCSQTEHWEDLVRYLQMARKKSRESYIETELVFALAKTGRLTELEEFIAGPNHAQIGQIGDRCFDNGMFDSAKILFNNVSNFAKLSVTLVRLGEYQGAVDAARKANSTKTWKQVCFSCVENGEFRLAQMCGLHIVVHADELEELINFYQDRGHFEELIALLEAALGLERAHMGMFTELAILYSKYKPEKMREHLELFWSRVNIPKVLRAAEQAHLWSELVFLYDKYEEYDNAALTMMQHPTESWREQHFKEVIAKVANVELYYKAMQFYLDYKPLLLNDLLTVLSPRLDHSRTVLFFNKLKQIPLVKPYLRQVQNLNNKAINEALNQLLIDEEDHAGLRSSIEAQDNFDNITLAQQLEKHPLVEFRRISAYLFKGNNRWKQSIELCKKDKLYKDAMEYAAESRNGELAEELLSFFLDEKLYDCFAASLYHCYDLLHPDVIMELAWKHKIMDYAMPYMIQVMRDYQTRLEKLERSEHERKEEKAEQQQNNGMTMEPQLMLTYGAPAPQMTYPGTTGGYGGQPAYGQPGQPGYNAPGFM

The target of assay [1] is T1, endogenous CED-6 (C. elegans (endogenous in whole animal lysate)) (UniProt O76337).
T1 sequence: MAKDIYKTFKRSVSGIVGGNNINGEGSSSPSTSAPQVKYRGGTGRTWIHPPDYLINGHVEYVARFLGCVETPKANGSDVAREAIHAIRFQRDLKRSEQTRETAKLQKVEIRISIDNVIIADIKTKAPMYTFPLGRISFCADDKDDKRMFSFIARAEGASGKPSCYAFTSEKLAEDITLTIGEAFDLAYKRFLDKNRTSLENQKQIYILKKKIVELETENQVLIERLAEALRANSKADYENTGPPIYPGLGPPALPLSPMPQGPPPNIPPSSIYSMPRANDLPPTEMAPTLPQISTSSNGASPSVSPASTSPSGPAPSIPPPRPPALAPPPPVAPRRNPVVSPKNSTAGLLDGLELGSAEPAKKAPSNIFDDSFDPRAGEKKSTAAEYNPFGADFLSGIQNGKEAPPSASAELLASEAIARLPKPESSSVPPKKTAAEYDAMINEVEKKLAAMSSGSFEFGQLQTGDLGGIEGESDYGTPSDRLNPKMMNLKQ
The experiment in a line: co-IP; IP of endogenous CED-1 or CED-6 with CED-1C or CED-6 antibody from whole cell lysates of N2 or GFP-fusion-expressing animals (controls: ced-1(e1735), ced-1 RNAi, ced-6 RNAi); blots with CED-1C, CED-6 and GFP antibodies.

For assay [2], the target named is T2, GST-fused CED-6 (C. elegans) (UniProt O76337).
T2 sequence: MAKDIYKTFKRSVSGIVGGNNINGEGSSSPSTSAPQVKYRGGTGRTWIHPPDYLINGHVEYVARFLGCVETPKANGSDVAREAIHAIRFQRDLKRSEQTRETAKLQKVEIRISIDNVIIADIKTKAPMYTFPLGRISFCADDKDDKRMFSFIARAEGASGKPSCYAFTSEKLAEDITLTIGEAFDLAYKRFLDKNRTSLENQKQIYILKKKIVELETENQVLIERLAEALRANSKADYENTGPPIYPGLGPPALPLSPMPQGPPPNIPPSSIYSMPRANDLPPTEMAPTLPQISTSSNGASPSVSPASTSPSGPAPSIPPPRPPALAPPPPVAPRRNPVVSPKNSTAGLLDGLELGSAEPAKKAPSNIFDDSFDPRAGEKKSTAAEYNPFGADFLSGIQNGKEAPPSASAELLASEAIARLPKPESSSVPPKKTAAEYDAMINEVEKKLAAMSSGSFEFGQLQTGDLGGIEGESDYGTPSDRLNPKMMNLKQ
The experiment in a line: pull-down; GST or GST fusion (3 µg) immobilized on glutathione-Sepharose beads, incubated with 35S-labeled in vitro translated protein at 4°C for ≥4 h, washed extensively; autoradiography; only the target purified.

The target of assay [3] is T3, GST-fused CED-9 (C. elegans) (UniProt P41958).
T3 sequence: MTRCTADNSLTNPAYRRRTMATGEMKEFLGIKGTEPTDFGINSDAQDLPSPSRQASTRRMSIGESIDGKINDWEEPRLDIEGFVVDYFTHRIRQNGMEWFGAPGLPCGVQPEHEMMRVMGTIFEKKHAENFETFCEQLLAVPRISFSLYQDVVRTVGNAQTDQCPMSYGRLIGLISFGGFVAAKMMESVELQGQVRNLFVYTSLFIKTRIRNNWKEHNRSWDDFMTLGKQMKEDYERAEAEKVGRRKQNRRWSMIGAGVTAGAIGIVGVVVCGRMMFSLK
The description is as above.

For assay [4], the target named is T4, GST-fused DYN-1 (C. elegans) (UniProt P39055).
T4 sequence: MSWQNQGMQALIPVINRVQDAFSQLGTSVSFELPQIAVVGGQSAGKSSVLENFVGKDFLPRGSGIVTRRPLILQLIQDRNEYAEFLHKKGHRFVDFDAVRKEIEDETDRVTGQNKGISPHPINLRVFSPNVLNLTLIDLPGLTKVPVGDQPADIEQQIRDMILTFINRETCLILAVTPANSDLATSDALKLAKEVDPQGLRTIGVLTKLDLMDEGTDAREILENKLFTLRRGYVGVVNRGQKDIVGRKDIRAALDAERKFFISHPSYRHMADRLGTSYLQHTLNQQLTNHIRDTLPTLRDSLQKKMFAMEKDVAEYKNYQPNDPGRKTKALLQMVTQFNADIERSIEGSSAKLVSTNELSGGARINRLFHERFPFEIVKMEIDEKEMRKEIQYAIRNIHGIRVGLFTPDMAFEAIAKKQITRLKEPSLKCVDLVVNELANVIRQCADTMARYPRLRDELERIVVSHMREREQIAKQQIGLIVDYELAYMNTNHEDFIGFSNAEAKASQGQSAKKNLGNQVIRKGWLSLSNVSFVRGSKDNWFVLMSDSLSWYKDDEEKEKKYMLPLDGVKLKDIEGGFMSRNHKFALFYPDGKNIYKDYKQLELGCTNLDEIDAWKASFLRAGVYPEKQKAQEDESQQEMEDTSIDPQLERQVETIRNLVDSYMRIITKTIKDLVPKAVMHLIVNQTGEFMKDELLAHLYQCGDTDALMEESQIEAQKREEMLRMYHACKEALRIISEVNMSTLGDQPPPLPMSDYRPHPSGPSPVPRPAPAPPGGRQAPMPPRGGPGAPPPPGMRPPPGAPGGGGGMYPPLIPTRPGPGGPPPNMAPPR
The description is as above.

The target of assay [5] is T5, GST-fused LST-4 (C. elegans) (UniProt Q8I4E2).
T5 sequence: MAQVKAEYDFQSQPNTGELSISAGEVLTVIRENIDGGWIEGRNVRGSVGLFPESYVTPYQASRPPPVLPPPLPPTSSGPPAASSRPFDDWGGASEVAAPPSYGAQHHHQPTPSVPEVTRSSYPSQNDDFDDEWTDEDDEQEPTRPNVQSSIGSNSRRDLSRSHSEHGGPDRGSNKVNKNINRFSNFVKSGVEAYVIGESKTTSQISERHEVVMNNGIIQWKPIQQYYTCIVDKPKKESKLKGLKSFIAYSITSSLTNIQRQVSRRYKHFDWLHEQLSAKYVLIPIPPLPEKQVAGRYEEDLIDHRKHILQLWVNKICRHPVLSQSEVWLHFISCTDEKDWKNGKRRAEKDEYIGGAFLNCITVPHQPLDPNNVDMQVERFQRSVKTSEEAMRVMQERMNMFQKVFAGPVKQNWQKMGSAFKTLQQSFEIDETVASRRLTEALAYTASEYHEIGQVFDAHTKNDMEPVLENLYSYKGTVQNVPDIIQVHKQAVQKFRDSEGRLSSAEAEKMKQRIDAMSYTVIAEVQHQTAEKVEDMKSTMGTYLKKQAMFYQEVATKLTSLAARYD
The description is as above.

Assay [6] has as its target T6, GST-fused intracellular region of CED-1 (CED-1C, amino acids 933–1111) (C. elegans) (UniProt Q9XWD6).
T6 sequence: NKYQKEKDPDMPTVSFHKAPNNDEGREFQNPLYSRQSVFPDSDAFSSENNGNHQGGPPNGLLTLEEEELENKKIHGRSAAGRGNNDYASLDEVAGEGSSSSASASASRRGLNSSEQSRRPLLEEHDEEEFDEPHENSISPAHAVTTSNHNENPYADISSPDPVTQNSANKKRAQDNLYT
The description is as above.

Results are given in words; binding and its absence hold for the method and conditions named. In cells and extracts the contact can be indirect. Some entries that bind do so weakly or less than the wild type. Tags and fused reporters may be left off the sequences shown.

Take GFP::CHC-1 (from UniProt P34574 1-1681): in assay [1], the binding result is recorded as “binds”.

B1: DPY-23::GFP (protein, UniProt P35603 1-441)
chain: MIGGLFVYNHKGEVLISRIYRDDVTRNAVDAFRVNVIHARQQVRSPVTNMARTSFFHVKRGNVWICAVTRQNVNAAMVFEFLKRFADTMQSYFGKLNEENVKNNFVLIYELLDEILDFGYPQNTDPGVLKTFITQQGVRTADAPVPVTKEEQSQITSQVTGQIGWRREGIKYRRNELFLDVIEYVNLLMNQQGQVLSAHVAGKVAMKSYLSGMPECKFGINDKITIEGKSKPGSDDPNKASRAAVAIDDCQFHQCVKLTKFETEHAISFIPPDGEYELMRYRTTKDIQLPFRVIPLVREVSRNKMEVKVVVKSNFKPSLLAQKLEVRIPTPPNTSGVQLICMKGKAKYKAGENAIVWKIKRMAGMKESQISAEIDLLSTGNVEKKKWNRPPVSMNFEVPFAPSGLKVRYLKVFEPKLNYSDHDVIKWVRYIGRSGLYETRC
B1: in assay [1], the binding entry is given as “binds”.

B2: LST-4::GFP (protein, UniProt Q8I4E2 1-566)
chain: MAQVKAEYDFQSQPNTGELSISAGEVLTVIRENIDGGWIEGRNVRGSVGLFPESYVTPYQASRPPPVLPPPLPPTSSGPPAASSRPFDDWGGASEVAAPPSYGAQHHHQPTPSVPEVTRSSYPSQNDDFDDEWTDEDDEQEPTRPNVQSSIGSNSRRDLSRSHSEHGGPDRGSNKVNKNINRFSNFVKSGVEAYVIGESKTTSQISERHEVVMNNGIIQWKPIQQYYTCIVDKPKKESKLKGLKSFIAYSITSSLTNIQRQVSRRYKHFDWLHEQLSAKYVLIPIPPLPEKQVAGRYEEDLIDHRKHILQLWVNKICRHPVLSQSEVWLHFISCTDEKDWKNGKRRAEKDEYIGGAFLNCITVPHQPLDPNNVDMQVERFQRSVKTSEEAMRVMQERMNMFQKVFAGPVKQNWQKMGSAFKTLQQSFEIDETVASRRLTEALAYTASEYHEIGQVFDAHTKNDMEPVLENLYSYKGTVQNVPDIIQVHKQAVQKFRDSEGRLSSAEAEKMKQRIDAMSYTVIAEVQHQTAEKVEDMKSTMGTYLKKQAMFYQEVATKLTSLAARYD
Regarding B2, in assay [1], the binding result is listed as “no binding”.

B3: ^35S-labeled APA-2 (protein, UniProt Q22601 1-925)
chain: MPAVKGDGMRGLAVFISDIRNCKSKEAELKRINKELANIRSKFKGDKTLDGYQKKKYVCKLLFIFLLGNDIDFGHMEAVNLLSSNKYTEKQIGYLFISVLIEQQSDLMKLIVQGIRNDLTSRNPVHVNLALQCISNMGSREMVEAFCTDLPKLLVSGETIDFVKQSAALCILKLFRNSPDSFQPGDYASRIVHLLNDSHMGVVTSAASLIEALSKKWPEEYKGAVPLAISRLSRIVTATYTDLQDYTYYFVPAPWLCVKLLRLLQNYPPPDDPSNKARLLECLEGILNKAQDAPKSKKVQHSNAKNAVLFEAIALIIHMDSEPQLLVRACNQLGTFLSHRETNLRYLALESMCLLATSEFSHDAVKKHQDTIINSLKTERDVSVRQRAVDLLYAMCDRSNANQIVAEMLAYLETADYSIREEMVLKVAILAEKYATDYTWYVDVILKLIRIAGDYVSEEVWYRVIQIVVNREDVQGYAAKTVFEALQRPACHENMVKVGGYILGEFGNFIAGDERSTAKIQFELLHSKFHLCSITTRCLLLTTYIKFCNLFPEIKPLVQQVFQTDHNLRNPDAELQQRSIEYLQMTKLASNDVLATILEVMPAFAEKESSLLAKLKKSKPQLEEIEREEKEKRSKPTAVMSEGSTSLVDFDSTNDTTASLADVFANNSGTGLGAQGDEVEIANKDDYLKFVTKSNAILWEDDYIQIGCKLETRNNLGRLGMFYGNKTSQPFNKFTPIITCPGALAVQLQAQAKPVEPVVAAGTQVQQLINFVCVQEFQKMPIMNIKFTFTDRAGAVQNFDKNFYLPLFISKFFEPTNMTSEQFFTRWKSLGAASQEAQKIFNALSPIEHATIESRLKGFGANLLTDVDPNPDNYVCAGIIHTQTQQIGTLIRLEPNKQAKMYRLTIRSSKDTVVQTLVDLLGNQF
modifications: 35S-labeled
On to B3, for which the binding result is “binds” in assay [2]; “no binding” in assay [3]; “binds” in assay [4]; “binds” in assay [5]; “binds” in assay [6].

B4: ^35S-labeled APB-1 (protein, UniProt Q9N4F3 1-955)
chain: MTDSKYFTTTKKGEIFELKNELNSDKKEKKKEAVKKVIASMTVGKDVSALFPDVVNCMQTDNVELKKLVYLYLMNYAKSQPDLAIMAVNTFVKDCEDPNPLIRALAVRTMGCIRVEKITEYLCDPLRRCMKDEDPYVRKTAAVCVAKLHDMNPALVKEQGFVELLNDLLSDANPMVVANAVAALTEMNEQQTVIEVNSQMVNKLLTALNECTEWGQVFILDALAGYTPRDERETQNICERISPRLAHANAAVVLSTVKVLMKLIDMMPADSDFITQLTKKLAPPMVTLLSAEPEIQYVALRNINLIVQKRPDILKQEMKVFFVKYNDPIYVKMEKLDIMIRLAQQNNIAQVLSELKEYATEVDVDFVRKSVRAIGRCAIKVEASSERCVQTLLELIQTKVNYVVQEAVVVIKDIFRKYPNRYESIISALCENLDTLDEPEARASMIWIIGEYAERIDNADELLESFVEGFHDENTQVQLQLLTAVVKLFLKRPGVAQALVQRVLSLATQDSDNPDLRDRGFIYWRLLSADPAAAKNVVLTEKPLISEETDLLEPSLLEQLVCHIGTLASVYHKPPSAFIDPAKAPLRQINPIPAAKFGSSLLDTSSTPNAARNGSAAAPTVIPSQDQVIADLLSLDLNAPAASANTGAFGGAMSGTTSMGGLDDLLGLGGDPMPAAPTNSASYNPFDGLGGLGGAAPAAPPSQQPASIGGLAEIFGSGGFGGSSGITYPKELWLDASKAMGMQVEGTFVRRGGKIFMEMTITNRAMQAISGFALQFNKNSFGLIPVEQVNPAPILPNQSQNYTIACDTTGAVQVTTPLTNLQVAIKNDINAFYFATTVPLLAYFREDGQMEKREFLEEWKSIPEQNEQQFTLQNTHNMNADAICTKLQQNNIHTVARRQVDNQQLLYHSVKYTNNLNVLSELKVNSQTTSITLSLKSKNLMAIANINEVFQALLN
modifications: 35S-labeled
As for B4, the binding entry in assay [2] is on record as “binds”; in assay [3] it was “no binding”; in assay [4], “binds”; in assay [5], “binds”; in assay [6], “no binding”.
